Laboratory results reported in patent US20250289897A1 (Eli Lilly, published 2025).

Target: recombinant human leptin protein (R&D, #398-LP-05M) (human, UniProt P41159)
Assay: competition ELISA, soluble LEPR-Fc titrated against plate-bound LEPR-Fc for 2 nM leptin

UniProt P41159, sequence (P41159 22-167 limits assumed): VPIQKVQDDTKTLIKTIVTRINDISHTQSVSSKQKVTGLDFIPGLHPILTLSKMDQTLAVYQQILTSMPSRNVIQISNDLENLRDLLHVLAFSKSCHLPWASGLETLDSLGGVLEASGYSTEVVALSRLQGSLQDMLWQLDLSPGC

- IC50: 2.58 µg/mL
B1: Recombinant LEPR extracellular domain fused to hIgG1-Fc (human LEPR ECD-TEV-Fc) (Fc fusion)
chain: FNLSYPITPWRFKLSCMPPNSTYDYFLLPAGLSKNTSNSNGHYETAVEPKFNSSGTHFSNLSKTTFHCCFRSEQDRNCSLCADNIEGKTFVSTVNSLVFQQIDANWNIQCWLKGDLKLFICYVESLFKNLFRNYNYKVHLLYVLPEVLEDSPLVPQKGSFQMVHCNCSVHECCECLVPVPTAKLNDTLLMCLKITSGGVIFQSPLMSVQPINMVKPDPPLGLHMEITDDGNLKISWSSPPLVPFPLQYQVKYSENSTTVIREADKIVSATSLLVDSILPGSSYEVQVRGKRLDGPGIWSDWSTPRVFTTQDVIYFPPKILTSVGSNVSFHCIYKKENKIVPSKEIVWWMNLAEKIPQSQYDVVSDHVSKVTFFNLNETKPRGKFTYDAVYCCNEHECHHRYAELYVIDVNINISCETDGYLTKMTCRWSTSTIQSLAESTLQLRYHRSSLYCSDIPSIHPISEPKDCYLQSDGFYECIFQPIFLLSGYTMWIRINHSLGSLDSPPTCVLPDSVVKPLPPSSVKAEITINIGLLKISWEKPVFPENNLQFQIRYGLSGKEVQWKMYEVYDAKSKSVSLPVPDLCAVYAVQVRCKRLDGLGYWSNWSNPAYTVVMDIKVPMRGPEFWRIINGDTMKKEKNVTLLWKPLMKNDSLCSVQRYVINHHTSCNGTWSEDVGNHTKFTFLWTEQAHTVTVLAINSIGASVANFNLTFSWPMSKVNIVQSLSAYPLNSSCVIVSWILSPSDYKLMYFIIEWKNLNEDGEIKWLRISSSVKKYYIHDHFIPIEKYQFSLYPIFMEGVGKPKIINSFTQDDIEKHQSDENLYFQG[human IgG1 Fc with changes and a few adjoining residues not shown]
notes: The entry holds ECD, TEV site, human IgG1 Fc and a His tag in one chain; also called LEPR-Fc; hLEPR-TEV-hIgG1Fc
